Some of the results follow.
B1: 141385844_141387436_256_CDS_ENSG00000113552_ENST00000311337|human|control|control (ssRNA)
RNA: GGGAGUUCUACAGUCCGACGAUCGUUCCACAUGAAGGAGUGGUAACUCUCCGGGUGGUCUCGAGGAAGGCCCACGUACUCAUCCAUGUUGAAGGUCUUCACAUAUUUAAAGGACAGGUCCCCAUUCUUAUAGUAUUCAAUCAGCAACAGAGGAUUGAGCAUCA
B2: chr9:14812383:14812384:-_ENSMUSG00000031934_ENSMUST00000164273|mus_mus|mus_mus_mus_hu_True|38_38 (ssRNA)
RNA: GGGAGUUCUACAGUCCGACGAUCAUAGCCCAGGUAGAUACACGCUAACAGUAUAAUGAUGAGUGUCAGCAGGCGGCAGCUAAUGUACUUGAUGAUUAAAUGACUAGAAUUUUUCUUUGUCUUCAAGUACUGCUCCACAAUUGGCAACAGAGGAUUGAGCAUCA
B3: chr7:65705844:65705845:+_ENSG00000169902_ENST00000304842|hu_mus|hu_hu_hu_mus_False|18_58 (ssRNA)
RNA: GGGAGUUCUACAGUCCGACGAUCAAACGGAUCUUUGUUACAUAAAUAAGGUGCCGGCUCCCCAUGUUUAACAAUGAUUUCUAGUAAGAAGGCUUGCAUGGCAGAAUCUAGCACUUCAUCAGUAACACCCGCCUCAUCCAAGCGCAACAGAGGAUUGAGCAUCA
B4: chr2:228220401:228220402:+_ENSG00000168958_ENST00000354503|hu_hu|FALSE|FALSE (ssRNA)
RNA: GGGAGUUCUACAGUCCGACGAUCUAGUGAAGCUGCAUCUACAACAGUCAGGUCAUCUGACGUUCCUUCAAUGGUUGUAUCUAUAUUUGAAAUGCCAUACAGAGAAUCAUUUCUGACCAGCUGUCCAUUUUGGCGAACAGCAUUCAACAGAGGAUUGAGCAUCA
B5: chr2:187373433:187373434:+_ENSG00000065548_ENST00000337859|hu_mus|motif|central (ssRNA)
RNA: GGGAGUUCUACAGUCCGACGAUCUGACCUAGUUUUCAUCCUCAUCAUUCUUCUAAGUCAAGAGUGUUCAAUUCCUCUUCGGGUUCAUCCAGAUCUUCGCCAGUGAACAGGUUUUCAUCAACAGGAACAGCAUCGAUGGAUCCACAACAGAGGAUUGAGCAUCA
B6: chr12:48362563:48362564:+_ENSG00000134291_ENST00000256686|hu_hu|hu_hu_hu_mus_False|68_78 (ssRNA)
RNA: GGGAGUUCUACAGUCCGACGAUCUCCGUCAAGCCCUUCGAUAGACCCUUGCGGGGGUGGUAAAAACAAUUCUAACUGGGGAAGGAAAAGAAACGCCAAAAACUUUCCAAAAAGCGGGGGUGGGGUGAGGCGGGAGGGGGAGGUCAACAGAGGAUUGAGCAUCA
B7: chr4:25749455:25749456:-_ENSG00000091490_ENST00000264868|hu_mus|FALSE|FALSE (ssRNA)
RNA: GGGAGUUCUACAGUCCGACGAUCGCACUAUGACCUCUAGAAAAAUCCACAGGGGGAAAAAAUGUAAACCAAUGUACAAUGUUAUCGCCUUCCCUGUGUGUGGAGUGUUUGUCUCAAGGCUCCUUCUAGCUGCUGGAUUUGGGACAACAGAGGAUUGAGCAUCA
B8: chr17:60770872:60770873:+_ENSG00000011028_ENST00000303375|hu_hu|hu_hu_hu_mus_True|28_98 (ssRNA)
RNA: GGGAGUUCUACAGUCCGACGAUCUCUUUAAAAAAAAUUCCUUUUUUACAAACAAUAAUAGCACAUUUCGAGAAUCAAGAACUACAAUAGAGGGUCCGCUUUGAGUUGUCCAUGUUCUCGUCCUGCACUGGGACACGGGGACUGCAACAGAGGAUUGAGCAUCA
B9: chr1:67050029:67050030:-_ENSMUSG00000026000_ENSMUST00000119559|mus_hu|FALSE|FALSE (ssRNA)
RNA: GGGAGUUCUACAGUCCGACGAUCGGAAAGCAACGGAAGCACUUAGCUUGGGUUUGAAUAUACAGAAAGGGUCAUGCAGUGAGUUGCAGGUGGCAUGCUAUCCUUUCAGAGUUCAAAUGCAGGGAACCUGGCUUUUGUGGGGACCAACAGAGGAUUGAGCAUCA
B10: chr3:148802587:148802588:-_ENSG00000071794_ENST00000310053|hu_mus|hu_hu_hu_mus_False|8_78 (ssRNA)
RNA: GGGAGUUCUACAGUCCGACGAUCUCCAACAACUUGUCCUCUCAUAGUUCCAAAUAAAACGGAAUCUUGCUCUUCAUCACUCGUUAGGAAGUCAUCUGGAGGAAUAAUGUCUUGGAAUUCAAAAUGUGGAAAGAAAGUUGAGUACAACAGAGGAUUGAGCAUCA
B11: chr11:4127340:4127341:+_ENSG00000167325_ENST00000300738|hu_mus|hu_hu_hu_mus_False|58_88 (ssRNA)
RNA: GGGAGUUCUACAGUCCGACGAUCGGCAUAGUCAGGGUGCUUCGUGGUCAAGGUUGCGGCUGUCUCAGCAGCCAGGGUAUCUAGUUCCACUGUGGUGACCCCACUAUAUAGGCCUUGGAUUACUUUCAUGGUGAUCUGAGCAGGCAACAGAGGAUUGAGCAUCA
B12: chr1:145441008:145441009:+_ENSG00000117289_ENST00000369317|hu_hu|FALSE|FALSE (ssRNA)
RNA: GGGAGUUCUACAGUCCGACGAUCGCAGGGAUCCACCUCAGUAUAAGUCGGUGGUGGCAUGAACUUGAACUCAGGGGCAUACAUAAAGAUAGGGCUGUCUUGAGAGCCAUCCAUGUCAUCUAGCAGAGGAGUGGUUGGGCUCUCCAACAGAGGAUUGAGCAUCA
B13: 3185149_3185865_1983_CDS_ENSMUSG00000046201_ENSMUST00000076734|mouse|control|control (ssRNA)
RNA: GGGAGUUCUACAGUCCGACGAUCCUUGGAACCAAUUUUAUAGGAUCCUGAACUCAGUUUCUGAAGAGCCCGAAAUGAAUCUUGUCGAUGAACCAUGCAGACAUAUGCACAGCCCCUGGGUGGAAUCAUAUUAAUGGAUUCAAUCAACAGAGGAUUGAGCAUCA
B14: chr11:77336104:77336105:-_ENSG00000074201_ENST00000525064|hu_mus|hu_hu_hu_mus_False|88_98 (ssRNA)
RNA: GGGAGUUCUACAGUCCGACGAUCCUCACACAUUGCUGUGAACAUUGCCUCCAACGCUGACUUAUCACUGGGCACAAAUCGAAAUUCAGAAAUGGGUUCAACAUCAUCAUUGUCUUCCUCAUCUUCAUCAGAGAGAGGUUCUUUCAACAGAGGAUUGAGCAUCA
B15: 53570521_53619045_831_CDS_ENSG00000100523_ENST00000323669|human|control|control (ssRNA)
RNA: GGGAGUUCUACAGUCCGACGAUCCCAAGUGCCGUCAAUAAACCACUGUCCACGCAUUACUGGUAUUUUAUCAGCCUGGUUCCAGUACACCGGGUAGCACUCUCCUUGGGUCACAUCCACCUCGUAGAGGCCGCCCCGCACGCACAACAGAGGAUUGAGCAUCA
B16: chr6:72561926:72561927:-_ENSMUSG00000056429_ENSMUST00000070524|mus_hu|FALSE|FALSE (ssRNA)
RNA: GGGAGUUCUACAGUCCGACGAUCUAAAUAAAGGGAACACAGAAGAACAAUGUCACCAAAGUGCAGGUGCAAAGCCCAAAGCAGCCCCCUACCUCUGCCAGCCCAGACCCGCCACUAAAUUCUAGAGGAGGGUGUCUCUCAGGUCAACAGAGGAUUGAGCAUCA
B17: chr3:149686290:149686291:-_ENSG00000070087_ENST00000452853|perfect_dup|motif|central (ssRNA)
RNA: GGGAGUUCUACAGUCCGACGAUCGCCAAGAGUCAAACCGUUGGUAAAGAAACCUUCCCGGUCUUUUCCUACAAUCAUAUCGGUUUCGGUUGGCGUAAUGCUCUGAAAGACGCCCCCGGCCGUGGCUGCCCAGACGUAUUUGGCCAACAGAGGAUUGAGCAUCA
B18: chr1:169356373:169356374:+_ENSG00000117475_ENST00000367808|hu_hu|FALSE|FALSE (ssRNA)
RNA: GGGAGUUCUACAGUCCGACGAUCGGCAAUCAGUUCUCCCCGGCAGUGAUUGCAGCAAUUGAAAGUUAUAUUUUCAUAUCUAGUAUAGGGAUGAAAUCGUCCAAUAUUUUUCUUUGUAGCAAGUAAGGUGGUUGGUGAAGACUCCAACAGAGGAUUGAGCAUCA
B19: 34927613_34929497_3120_CDS_ENSG00000159140_ENST00000436227|human|control|control (ssRNA)
RNA: GGGAGUUCUACAGUCCGACGAUCCAUUAGCUUUGGCUAUUUCAAGUAAUUGAGCCUUAUCCAAAUCUGUCAGACGUUUGGGUGAUCUGCCUCGUUCAGAAGACCUGGAUCUUUUACGACGGAUGGGAGAUCUGCUAAACCUUCCAACAGAGGAUUGAGCAUCA
B20: chr4:174298412:174298413:+_ENSG00000164105_ENST00000296504|hu_hu|motif|central (ssRNA)
RNA: GGGAGUUCUACAGUCCGACGAUCAUUCUUCACUGAGUAGAUGAAAUAUGUUAAGGUGUCUUUUUCAUUCACUGGAAUAGACCGGAAGUGGCAACCAACUAUCUCAACAAGUUGUGCUUUAUUAAGUCCUGGUCUGGUUGGUAGCAACAGAGGAUUGAGCAUCA
B21: chr7:151048522:151048523:+_ENSG00000013374_ENST00000566856|hu_mus|hu_hu_hu_mus_True|8_88 (ssRNA)
RNA: GGGAGUUCUACAGUCCGACGAUCCUGUUUCUUAUUUAUUACGAUCUUGAUAUAAUUUUCUUGAAAUCCGAAAGUUUCAGCUAUUUGACACCUCAGGUCUCUACCAGUGACAUGCAAGCGGGUCUCCAACAAGUUUUUCUUAUCCAACAGAGGAUUGAGCAUCA
B22: chr3:176740097:176740098:-_ENSG00000177565_ENST00000430069|hu_mus|hu_hu_hu_mus_True|28_28 (ssRNA)
RNA: GGGAGUUCUACAGUCCGACGAUCUGUUUUGUAUACCACAAAAGGAGGCACUUUCAGUAUCUGCAAAAGGUGUUUAGUCCUAAAACAUACUCACCUAGAGGAUAACUAAAACAGAAUAUCUGUUACACUCUAAGACCUACUCCACAACAGAGGAUUGAGCAUCA

Each binder was assayed against T1, UNK ZnF1-3 (human, UniProt Q9C0B0 31-174) (assay: nsRBNS (natural sequence RNA bind-n-seq); RBNS binding buffer (assumed for nsRBNS): 25 mM Tris pH 7.5, 150 mM KCl, 3 mM MgCl2, 0.01% Triton X-100, 500 ug/ml BSA, 20 U/ml SUPERase-In, 4 C; UNK is unkempt and MSI1 is Musashi-1; names of the RNAs are library labels; protein concentration not given here; high values mean tight binding).
T1 sequence: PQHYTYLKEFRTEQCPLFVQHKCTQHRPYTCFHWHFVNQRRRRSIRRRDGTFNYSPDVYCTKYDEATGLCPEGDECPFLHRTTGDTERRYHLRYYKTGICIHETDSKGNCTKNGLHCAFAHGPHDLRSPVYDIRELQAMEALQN

| Binder | binding signal |
| --- | --- |
| B1 | 1.13 enrichment R |
| B2 | 1.28 enrichment R |
| B3 | 0.454 enrichment R |
| B4 | 0.666 enrichment R |
| B5 | 1.22 enrichment R |
| B6 | 2.84 enrichment R |
| B7 | 1.02 enrichment R |
| B8 | 0.86 enrichment R |
| B9 | 1.45 enrichment R |
| B10 | 1.4 enrichment R |
| B11 | 0.861 enrichment R |
| B12 | 1.07 enrichment R |
| B13 | 0.914 enrichment R |
| B14 | 1.06 enrichment R |
| B15 | 0.851 enrichment R |
| B16 | 1.89 enrichment R |
| B17 | 0.88 enrichment R |
| B18 | 1.55 enrichment R |
| B19 | 0.87 enrichment R |
| B20 | 0.917 enrichment R |
| B21 | 0.893 enrichment R |
| B22 | 0.836 enrichment R |
